Test results as given in PubChem BioAssay AID624417 (National Center for Advancing Translational Sciences (NCATS), 2012).
Among all 410,000 compounds or so, about 6,400 (1.6%) were called active. This list was built around the results that the source calls inconclusive (neither active nor inactive); the mix of calls is not that of the screen. Calls follow the shape of the dose curve; as a rule, active = well fitted inhibition curve with a large enough effect; inconclusive = small, poorly fitted or top-dose-only effect; inactive = no such curve, though single readings can be large or run the other way. No potency is given beside an inconclusive call; the fits are too rough.

What follows are compounds tested against Glucagon-like peptide 1 receptor (Homo sapiens) (UniProt P43220) (assay: qHTS of GLP-1 Receptor Inverse Agonists (Inhibition Mode)). Conditions: HEK293 GLP-1R CRE-luciferase, luminescence, 24 h, GLP-1R form is constitutively active; activity change, negative = inhibition: at 38.3 µM (top of the series) unless noted.
Outline: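 HEK293 cells stably co-expressing constitutively active GLP-1R and a cAMP-responsive luciferase reporter were seeded in DMEM with 10% Nu serum, given compounds after 12 h, and incubated 24 h at 37 deg C. Luminescence was then read.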
% is scaled to controls: 0 for no effect and ±100 for the full control effect; potency is read from the fitted curve at half-maximal effect; tags tell the direction and shape of the fitted curve.
Also: nearly all actives have a fitted effect of over 55% in size.

UniProt P43220, sequence (P43220 whole entry, looked up): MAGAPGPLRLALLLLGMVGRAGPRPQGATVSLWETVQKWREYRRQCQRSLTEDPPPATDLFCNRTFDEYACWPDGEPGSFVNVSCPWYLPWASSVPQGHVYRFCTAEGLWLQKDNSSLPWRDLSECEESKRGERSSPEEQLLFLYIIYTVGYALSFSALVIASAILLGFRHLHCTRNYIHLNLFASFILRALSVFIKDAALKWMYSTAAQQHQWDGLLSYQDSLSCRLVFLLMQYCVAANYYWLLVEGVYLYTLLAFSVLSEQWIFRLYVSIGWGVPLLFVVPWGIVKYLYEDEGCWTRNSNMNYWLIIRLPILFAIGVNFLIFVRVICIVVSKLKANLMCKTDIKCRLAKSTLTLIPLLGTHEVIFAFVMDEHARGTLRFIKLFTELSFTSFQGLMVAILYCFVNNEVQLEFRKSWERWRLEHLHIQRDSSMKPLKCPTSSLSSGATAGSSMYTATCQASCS

SMILES	activity change, negative = inhibition	Potency
COc1cc(/C=C/C(=O)Nc2nnc(CC(C)(C)C)s2)cc(OC)c1OC	inactive: -4.14%	–
Cc1onc(-c2ccccc2Cl)c1C(=O)c1ccccc1	–	inconclusive [inhibitor, partial curve, poor fit]
Cc1occc1C(=O)N/N=C/c1ccc(N(C)C)cc1	–	inconclusive [inhibitor, partial curve, poor fit]
O=C(/C=C/c1ccccc1)Nc1cccc(C(=O)NCCCCc2ccccc2)c1	–	inconclusive [inhibitor, partial curve, poor fit]
O=C(NCCc1ccc(Cl)cc1)C1CCN(S(=O)(=O)c2ccc3[nH]ccc3c2)CC1	–	inconclusive [inhibitor, single point]
Cn1c(=O)c2[nH]c(=S)n(Cc3ccccc3)c2n(C)c1=O	inactive: 4.65%	–
COc1ccc(CCNC(=O)C(=O)NCC(c2cccs2)S(=O)(=O)c2ccc(F)cc2)cc1 (stereo unspecified)	–	inconclusive [inhibitor, single point]
Cc1ccnc(NC(=O)C(Cc2ccccc2)NC(=O)c2ccccc2)c1 (stereo unspecified)	–	inconclusive [inhibitor, partial curve, poor fit]
O=C(Cn1cnc([N+](=O)[O-])c1)Nc1ccccc1C(F)(F)F	inactive: -18.1%	–
O=C(Nc1ccc(Cl)cc1)N(Cc1cccs1)Cc1cccs1	–	inconclusive [inhibitor, partial curve, poor fit]
CC1CCC(C(O)(C(=O)c2ccccc2)c2ccccc2)C(=O)C1 (stereo unspecified)	inactive: -77.2%	–
CCc1ccc(C(=O)CC2(O)C(=O)N(CCc3ccccc3)c3ccc(Cl)cc32)cc1 (stereo unspecified)	–	inconclusive [inhibitor, partial curve, poor fit]
Cc1ccc2ccc(S(=O)(=O)n3nc(C)cc3C)cc2c1	inactive: -30.3%	–
c1ccc(CN2CCC(Nc3nc(-c4cccnc4)nc4ccccc34)CC2)cc1	inactive: -17.8% [at 0.307 µM]	–
CN(C1CCCCC1)C(CNS(=O)(=O)c1ccccc1)c1ccccc1 (stereo unspecified)	–	inconclusive [inhibitor, single point]
CCC(C)C1/C=C\CC(NC(=O)OCC2c3ccccc3-c3ccccc32)CC(=O)N1Cc1ccccc1 (stereo unspecified)	–	inconclusive [inhibitor, partial curve, poor fit]
C#CC(=O)N(c1ccc(OC)cc1OC)C(C(=O)NC1CCCC1)c1cccs1 (stereo unspecified)	–	inconclusive [inhibitor, partial curve, poor fit]
O=C1S/C(=C\c2ccc(Cl)cc2)C(=O)N1CCn1cnnn1	–	inconclusive [inhibitor, single point]
COc1ccc(CCNC(=O)c2cc(=O)c3cc(C)c(C)cc3o2)cc1OC	inactive: 8.52%	–
O=C1/C(=C/c2ccc(F)cc2)CCC1C1CCCC1 (stereo unspecified)	inactive: 1.4%	–
Cc1ccccc1/C=C/C(=O)c1ccc([N+](=O)[O-])o1	–	inconclusive [inhibitor, partial curve, poor fit]

SMILES	activity change, negative = inhibition	Potency
O=C(Nc1ccc(-c2csc(Nc3ccc(Cl)cc3)n2)cc1)c1cccc(C(F)(F)F)c1	–	inconclusive [inhibitor, full curve, poor fit]
Cc1ccc(C(=O)CCC(=O)OCC(=O)Nc2nnc(-c3ccccc3)o2)cc1	inactive: 15.2%	–
Cc1ccc(Nc2ncnc3sccc23)c(C)c1	–	inconclusive [inhibitor, single point]
COc1ccccc1N1CCN(C(=O)c2ccc3ncsc3c2)CC1	–	inconclusive [inhibitor, partial curve, poor fit]
O=C(OC(C(=O)Nc1cccc(C(F)(F)F)c1)c1ccccc1)C1CCCCC1 (stereo unspecified)	–	inconclusive [inhibitor, single point]
O=C(OCC(=O)N1CCc2ccccc21)c1c2c(nc3ccccc13)CCCCC2	–	inconclusive [inhibitor, single point]
Cc1ccc(-n2ncc(C(=O)NCc3ccco3)c2C2CCN(C(=O)OC(C)(C)C)CC2)cc1	–	inconclusive [inhibitor, single point]
COc1cc(CNCCc2c[nH]c3ccccc23)ccc1OCc1ccccc1F	–	active: 7.94 µM
Cc1cc2cc(C(c3nnnn3Cc3ccco3)N3CCc4ccccc4C3)c(=O)[nH]c2cc1C (stereo unspecified)	–	inconclusive [inhibitor, partial curve, poor fit]
O=C(CN1CCN(S(=O)(=O)c2ccc(Br)cc2)CC1)Nc1ccc2c(c1)OCO2	–	inconclusive [inhibitor, partial curve, poor fit]
COc1ccc(CCn2c(-c3ccco3)nc3nc4ccccc4nc32)cc1	–	inconclusive [inhibitor, partial curve, poor fit]
Cn1c(C(O)c2ccc(Cl)cc2)nc(Cl)c1Cl (stereo unspecified)	–	active: 11.2 µM
CC[C@]12c3[nH]c4ccc(Cl)cc4c3CCN1C(=O)[C@@H](CC(=O)NCCN1CCOCC1)C[C@@H]2C(=O)N1CCN(C(=O)c2ccco2)CC1	inactive: 10.4%	–
Cc1cccc2nc(CSCc3ccco3)cn12	–	inconclusive [inhibitor, partial curve, poor fit]
CCOC(=O)C(C)Sc1nc(-c2ccccc2)nc2ccccc12 (stereo unspecified)	–	inconclusive [inhibitor, partial curve, poor fit]
Cc1c(C(=O)c2ccc(Cl)c(Cl)c2)cnc2cc3c(cc12)OCO3	–	inconclusive [inhibitor, partial curve, poor fit]
Cc1cccc(-c2nc3c(cnn3-c3ccccc3)c(=O)n2-c2ccc(Cl)cc2)c1	–	inconclusive [inhibitor, partial curve, poor fit]
CCOC(=O)c1cc(-c2ccc(C)cc2)n(CCC(=O)NC(C)CC)c1C (stereo unspecified)	–	inconclusive [inhibitor, partial curve, poor fit]
CCn1c(SCc2ccc(F)cc2)nc2ccccc2c1=O	inconclusive: -86.4% [inhibitor]	–
O=C(c1ccc(Cl)c(S(=O)(=O)N2CCCC2)c1)N1CCN(c2ccccc2F)CC1	–	inconclusive [inhibitor, partial curve]
